For 39 compounds, TGI and GI50 results are on record in PubChem BioAssay (NCI).

This assay concerns NCI-H322M lung. The experiment in a line: NCI anticancer screen, dose series, 48 h.

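Following 48 hours of exposure in 96-well plates, responses at five concentrations were used to interpolate endpoints linearly. GI50 marks 50% less growth. TGI: concentration producing complete growth inhibition.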 Numbered stars: 1 amine (or outer) side, 2 acyl side, 3 side chain; on linkers, the order of the positions; unused ones are H or OH. Bridge positions count the residues as written; N and C are the ends. Square brackets hold non-standard residues; d marks the D form. Peptide text beside a SMILES is read from it. I, II: the chains in the order shown. Actinocin(9to1) = Cc1c2oc3c(C)ccc(C(=O)[*:1])c3nc-2c(C(=O)[*:2])c(N)c1=O; Hyp = O=C(O)[CH]1C[CH](O)CN1; NMeV = CN[CH](C(=O)O)C(C)C; Sar = CNCC(=O)O

As for `O=[N+]([O-])c1cc2ccc(N(CCO)CCO)nc2nc1N(CCO)CCO`, the TGI was above 100 µM.

`Cc1[nH]c(N)nc(=S)c1CCC(=O)O` showed a TGI above 100 µM.

In the case of `CC(=O)NNc1nc(C)c(C(=O)/C=C/c2ccc(Cl)cc2)s1`, the TGI is above 100 µM.

For the compound `NC(N)=NC(N)=NCCCc1ccco1`, the GI50 was 189 µM and the TGI is above 500 µM.

The compound `CC(=O)NC(CSC1=C2NC(=O)\C=C/C=C/C=C\C(C)C(O)CC(=O)/C(C)=C\CC(O)/C=C/C(C)C(O)C(C)C=C(C)C(=O)c3c(O)c(C)cc(c3C1=O)C2=O)C(=O)O` (centres undefined) gave a TGI above 100 µM.

`CCn1c2c(c3ccccc31)[C@@H](c1ccc(Cl)cc1)CC1C(=O)N(c3ccccc3)C(=O)C21` (some centres undefined) registered a TGI above 100 µM.

Take `C=CCOC(=O)N1c2ccc(O)cc2[C@@]23O[C@@]24[C@@H]1C#C/C=C\C#C[C@]3(O)C(OC)(OC)C[C@@H]4C`: the TGI is above 100 µM.

`CC(=O)OC12c3ccccc3-c3ccccc3C1C(C(=O)O)C2C(=O)O` (centres undefined) gave a TGI above 10 µM.

The compound `COC1=C(Cl)C(=O)c2c(O)ccc(O)c2C1=O` registered a TGI of 8.75 µM.

`N#CC(C#N)=Cc1ccc(CP(=O)(O)O)cc1`: the TGI is above 100 µM.

In the case of `N/C(=N\Nc1ccc(Cl)cc1)c1cnccn1`, the TGI was above 100 µM.

`CCOC1NC(=O)Oc2cc3ccccc3cc21` (centres undefined) had a TGI above 100 µM.

The compound `O=C(C#Cc1ccccc1)C1=Cc2ccccc2OC1` showed a TGI of 28.7 µM.

In turn, `C=CCN1/C(=C2\SC(=S)N(c3ccc(C)cc3)C2=O)Sc2c1ncn(C)c2=O` returned a TGI above 100 µM.

In turn, `O=C(CN1CCCCC1)Nc1ccc2c(c1)C1Oc3ccccc3CC1CO2` (centres undefined) registered a TGI above 100 µM.

`CCC(CC)(CO)CNc1cc(Cl)nc(N)n1` gave a TGI above 100 µM.

For the compound `CC1=NOC(=O)/C1=C/c1ccc([N+](=O)[O-])cc1`, the TGI was above 100 µM.

Take `Cn1c(-c2ccccc2)c(/C=C/C2=[N+](C)c3ccccc3C2(C)C)c2ccccc21`: the GI50 was 2.69 µM and the TGI was 9.04 µM.

Turning to `O=C(c1ccccc1)c1c(C(F)(F)F)n([O-])c2cc(C(F)(F)F)ccc2[n+]1=O`, the GI50 is 1.94 µM and the TGI came to 3.83 µM.

Take `CCCCc1c2cnccc2c(CCCC)c2c1[nH]c1ccccc12`: the TGI worked out at 46.6 µM.

Regarding `Nc1ccc2ccc(N3CCNCC3)nc2n1`, the TGI was above 100 µM.

With `CN(C)CCOc1ccc(-c2c(Oc3ccccc3)c(=O)oc3ccccc23)cc1`, the TGI was found to be 18 µM.

In the case of `COC1=CC(c2ccc[nH]2)=N/C1=C\c1[nH]c(C)c(CC(=O)OCc2ccccc2)c1C`, the GI50 was 0.44 µM and the TGI amounted to 3.21 µM.

The compound `O=C1CC(=O)NC(=NN2C(=O)CSC2C(=O)c2ccco2)N1` (centres undefined) registered a TGI above 100 µM.

Take `COc1cc(C(=O)O[C@H](C(=O)NCCN(C)CCNC(=O)[C@@H](OC(=O)c2cc(OC)cc3c(C)cccc23)[C@]2(C)CO2)[C@]2(C)CO2)c2cccc(C)c2c1`: the GI50 is 0.255 µM and the TGI was 0.828 µM.

Take `CC(C)C(=O)c1c(C(F)(F)F)n([O-])c2cc(F)c(F)cc2[n+]1=O`: the GI50 was 1.66 µM and the TGI stood at 3.32 µM.

Consider `CC(=O)O[C@H]1C[C@@H](OC(C)=O)[C@@](C)(O)[C@@H]2[C@@H](OC(C)=O)[C@@]3(O)[C@H](/C=C(/CO)[C@H]4O[C@H]4[C@@H](OC(C)=O)[C@@]12C)OC(=O)[C@@H]3C`, for which the TGI is above 25 µM.

Take `CC1CC(C)C2OC2(C)C[C@H](C)C(=O)NC(C)C(=O)N(C)[C@H](Cc2c(Br)[nH]c3ccccc23)C(=O)N[C@@H](c2ccc(O)cc2)CC(=O)O1` (some centres undefined): the TGI was found to be 60.8 µM.

With `CCCN(CCC)C(=O)c1nc(N)nc(-c2ccc(OC)cc2)c1-c1ccc(OC)cc1`, the TGI is above 100 µM.

In the case of `O=C(c1cccs1)N1CCCN(C(=O)c2cccs2)C1=S`, the TGI is above 100 µM.

`Cc1c2oc3c(C)ccc(C(=O)NC4C(=O)NC(C(C)C)C(=O)N5CC(O)CC5C(=O)N(C)CC(=O)N(C)C(C(C)C)C(=O)OC4C)c3nc-2c(C(=O)NC2C(=O)NC(C(C)C)C(=O)N3CC(O)CC3C(=O)N(C)CC(=O)N(C)C(C(C)C)C(=O)OC2C)c(N)c1=O` (centres undefined) (I: TV[Hyp][Sar][NMeV] / II: TV[Hyp][Sar][NMeV]; ester I:1-I:C, II:1-II:C; linker I:N-II:N via Actinocin(9to1); configuration not given here) had a TGI above 1 µM.

As for `O=C(/C=C1\C(=O)N(Cc2ccccc2)c2ccccc21)c1ccc(OCCN2CCCCC2)cc1`, the GI50 was 11.7 µM and the TGI amounted to 24 µM.

The compound `COC(=O)C1CC(OC(C)=O)C=C2C(=O)CCC21` (centres undefined) had a TGI above 100 µM.

As for `O=C(O)c1c2c(cc3c1CC1(Cc4cc5c(cc4C1=O)CCC5)C3)CCC2` (centres undefined), the TGI was above 100 µM.

For the compound `C=C1C(=O)O[C@H]2[C@H]1CC/C(COC(=O)OC/C1=C/CC[C@@]3(C)O[C@H]3[C@H]3OC(=O)[C@@H](CN(C)C)[C@@H]3CC1)=C\CC[C@@]1(C)O[C@@H]21`, the GI50 is 13.3 µM and the TGI is 26 µM.

In the case of `CCCCCCCCCCCCCC[n+]1ccc(C(N)=O)cc1`, the GI50 was 5.79 µM and the TGI turned out to be 21.8 µM.

As for `COC(=O)c1c2c(c(C)[n+]([O-])c1C)C(=O)C=C(NCc1cccc(Cl)c1)C2=O`, the GI50 is 0.36 µM and the TGI was determined as 1.51 µM.

With `COC(=O)c1c2c(cc3c1CC1(Cc4cc5c(c(C(C)=O)c4C1)CCCC5)C3)CCCC2` (centres undefined), the TGI is above 100 µM.

`N/N=C(\c1nc2ccc(Cl)cc2[nH]c1=O)C(O)c1ccc(Cl)c(Cl)c1` (centres undefined) yielded a TGI above 100 µM.
